Experimental findings from the supplement of paper PMC3334620 are described below.

Whole data set: some 33,000 sequences, median “E-score (-0.5 to 0.5)” near -0.017, cut for the highest 2% near 0.3. The list shows a part of the results.

The target of the test is T1, Sut1 (UniProt P53032).
T1 sequence: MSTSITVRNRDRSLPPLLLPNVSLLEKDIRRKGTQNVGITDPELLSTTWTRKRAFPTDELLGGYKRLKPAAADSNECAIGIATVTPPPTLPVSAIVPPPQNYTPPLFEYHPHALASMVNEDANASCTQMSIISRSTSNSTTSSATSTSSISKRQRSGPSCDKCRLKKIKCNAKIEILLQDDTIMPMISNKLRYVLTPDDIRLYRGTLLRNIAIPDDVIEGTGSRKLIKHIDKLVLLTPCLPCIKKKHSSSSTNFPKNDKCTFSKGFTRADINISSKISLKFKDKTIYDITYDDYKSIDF
The test is described as follows: PBM E-score (8-mer binding enrichment) (E-score (-0.5 to 0.5)); higher = stronger / more preferred TF binding; most listed sequences are background and not binding sites. The settings on record: protein concentration: 200 nM; construct: GST-full length. A digest of the protocol: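 Bound GST-tagged yeast transcription factors, applied at about 100-200 nM to double-stranded universal all-10-mer Agilent arrays, were detected with fluorescent anti-GST. Scans were normalised with masliner. A modified Wilcoxon-Mann-Whitney statistic, the E-score, was assigned to each ungapped eight-base word pooled with its reverse complement by the Universal PBM Analysis Suite.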
As to CCCGTTTC, the “PBM E-score” value was determined as 0.00582. ATGAACAT: the “PBM E-score” value came to 0.2.

For CAAACTAG, the “PBM E-score” value stood at 0.0325. On to AGGTGCCC, for which the “PBM E-score” value is -0.201. Take CAGGATAG: the “PBM E-score” value was found to be 0.051.

Consider AGAAAGAG, for which the “PBM E-score” value was determined as 0.123.

As for ATCTTGGC, the “PBM E-score” value was -0.067.

Take GAACAGTC: the “PBM E-score” value came out at 0.0217. Consider AAGTAATC, for which the “PBM E-score” value was determined as 0.207. Turning to ATTCTCGC, the “PBM E-score” value is -0.362. Under CAAGGTCA stands -0.257; under AGTGAAAG, 0.128; under CCATGCCA, -0.291. Turning to GATACGTA, the “PBM E-score” value was -0.057. ATCTTTCC: the “PBM E-score” value stood at 0.193. Take ATGTGTGA: the “PBM E-score” value came to 0.0337.

As to AACATATC, the “PBM E-score” value was determined as 0.21. Consider GCTCGGGA, for which the “PBM E-score” value is -0.0428. To CGGGAGAC belongs 0.132; to ACAGGGCG, -0.0919; to CACACTCC, 0.158.

For the sequence TCCAGGGA, the “PBM E-score” value is -0.276.

Consider AAGGGCGA, for which the “PBM E-score” value was -0.173.

With AGGAGCTG, the “PBM E-score” value was -0.247. For ATCCCGTG, the “PBM E-score” value is -0.119. For CCTGTCAA, the “PBM E-score” value was -0.085. On to ACTCAGGC, for which the “PBM E-score” value is -0.0895. For GTTATGTA, the “PBM E-score” value amounted to 0.115. To AGCACCCT belongs -0.184; to GGCATGGA, -0.203.

With ATCCATTG, the “PBM E-score” value amounted to 0.0348. As for CTGAATGC, the “PBM E-score” value is -0.182. To AGCGCCAG belongs -0.0984. Turning to ATTAGCCC, the “PBM E-score” value was found to be 0.0147. Regarding ATGCCTGA, the “PBM E-score” value is -0.143.

Regarding GTCCTTCA, the “PBM E-score” value is -0.0969.

As for CTCCCAAG, the “PBM E-score” value was -0.192.

With CGACAATA, the “PBM E-score” value stood at 0.153. As to AGATTGCC, the “PBM E-score” value is -0.043. As for CATCCGTC, the “PBM E-score” value worked out at 0.0853. For GTGATACA, the “PBM E-score” value was -0.064. As for TCGCATAA, the “PBM E-score” value stood at 0.247.

For the sequence CACTCGGG, the “PBM E-score” value was -0.0411.

With CCCCAGCG, the “PBM E-score” value is -0.296. To TACCCCAA belongs -0.0514; to AAACCCTG, -0.095. With CATACAAA, the “PBM E-score” value stood at 0.264. Consider AACGAGAC, for which the “PBM E-score” value was -0.0364.

On to AAAATTAG, for which the “PBM E-score” value came out at 0.155. With AGGTGCTG, the “PBM E-score” value was -0.044.

As for AATACAGT, the “PBM E-score” value stood at 0.163. Under GACCTGCA stands -0.0862; under ACATACAA, 0.189; under CGAACGTC, -0.168. Take AAAGGGTT: the “PBM E-score” value was 0.0671. Regarding AAGTTTAA, the “PBM E-score” value is 0.0927. Turning to CTCACGTA, the “PBM E-score” value is -0.0939. As to ATCATTTA, the “PBM E-score” value turned out to be 0.283.

Turning to GGAAGCAA, the “PBM E-score” value came to 0.00081. To GACACGGC belongs -0.0171; to CATAAGGC, -0.065. Under ATTGCGCG stands 0.00102; under TCGCAGCA, -0.166. As for CCAGATTC, the “PBM E-score” value was -0.218. For the sequence CACGCCCG, the “PBM E-score” value is -0.0449. On to ATGTGGAG, for which the “PBM E-score” value was 0.103. Regarding GAATGCCC, the “PBM E-score” value was -0.356. Turning to GAAACATC, the “PBM E-score” value was -0.0285.

Consider AAAGATAT, for which the “PBM E-score” value came out at 0.219. Take ACCTAATC: the “PBM E-score” value worked out at 0.192. As to AGTAGAGG, the “PBM E-score” value is -0.308. As to GCCACGAC, the “PBM E-score” value turned out to be 0.0627. AGTTACGC: the “PBM E-score” value is -0.0245.

In the case of TAACTGTA, the “PBM E-score” value came to 0.176. With CTGACCAG, the “PBM E-score” value was -0.211. For AGCGAGAG, the “PBM E-score” value worked out at 0.0844.

Turning to ATAGACGG, the “PBM E-score” value is 0.117. Take AGGTGATG: the “PBM E-score” value was -0.295.

For GAAAGGAA, the “PBM E-score” value came out at 0.0308.

Take TAGTATCA: the “PBM E-score” value was determined as 0.142.

For the sequence CTACATCA, the “PBM E-score” value stood at 0.0225. Consider GCACTGTA, for which the “PBM E-score” value amounted to 0.123. As to AATGACCT, the “PBM E-score” value was -0.0653. Turning to ATTGGAAC, the “PBM E-score” value worked out at 0.22.

Take CTCTGTTA: the “PBM E-score” value was -0.147. Consider CCATGGAA, for which the “PBM E-score” value was -0.0431.
